Results on 20 variants are retold here after the RNAGym collection of RNA variant scans (doi:10.7554/elife.90254).

Read counts are not given, so values of variants with three or more changes are uncertain.

First the molecules themselves.
B1: LINE1-full (parent)
chain: UACGUAGGUGGUUUUCCCCUGAUAGUGCUAAGGGGGCCUGGAAGUUUGGACUGGGCAGAGCUCAACACAGCGUGGCAAAGUGGCUGUGGCUAGACUGCCUCUCUGGAUUCCUCGUCACUCAGCAGGGCAUCUCUGAGAGAAAUGCC

Variants of B1 are the subject of the data set. In words: self-cleavage, relative activity (ratio to wild type); higher = more cleavage; in vitro, sequencing; the parent is a self-cleaving ribozyme.
With UACGUAGGUGGUUAUCCCCCGAUAGUGCUAAGGGGGCCUGGAAGUUUGGACUGGGCAGAGCUCAACACAGCGUGGCAAAGUGGCUGUGGCUAGACUGCCUCUCUGGAUUCCUCGUCACUCAGCAGGGCAUCUCUGAGAGAAAUGAC [U14A U20C C145A], the self-cleavage came to 0.45.
Consider UACGUAGGUGGUUAUCCCCUGAUAGUGCUAAGGGGGCCUGGAAGUUUGGACUGGGCGGAGCUCAACACAGCGCGGCAAAGUGGCUGUGGCUAGACUGCCUCUCUGGAUUCCUCGUCACUCAGCAGGGCAUCUCUGAGAGAAAUGCC [U14A A57G U73C], for which the self-cleavage was determined as 1.16.
The same measure for UACGUAGGUGGUUAUCCCCUGAUAGUGCUAAGGGGGCCUGGAGGUUUGGACUGGGCAGAGCUCAACACAGCGUGGCAAAGUGGCUGUGGCUAGACUGCCUCUCUGGACUCCUCGUCACUCAGCAGGGCAUCUCUGAGAGAAAAGCC [U14A A43G U108C U143A]: 1.21.
In the case of UACGUAGGUGGUUAUCCCCUGAUAGUGCUAAGGGGGCCUGGAAGUUUGGACUGGGCAGGGCCCAACACAGCGCGGCAAAGUGGCUGUGGCUAGACUGCCUCUCUGGAUUCCUCGUCACUCAGCAGGGCAUCUCUGAGAGAAAUGCC [U14A A59G U62C U73C], the self-cleavage is 0.25.
Take UACGUAGGUGGUUAUCCCCUGAUAGUGCCAAGGGGGCCUGGAAGUUUGGACUGGGCAGAGCUCAACACAGCGUGGCAAAGUGGCUGUGGCUAGACUGCCUCUCUGGAUUCCUCGUCGCUCAGCAGGGCAUCUCUGAGAGAAAUGCC [U14A U29C A117G]: the self-cleavage was 2.83.
As to UACGUAGGUGGUUAUCCCAUGAUAGUGCUAAGGGGGCCUGGAAGUUUGGACUGGGCAGAGCUCAACACAGCGUGGCAAAGUGGCUGUGGCUAGACUGCCUCUCUGGAUUCCUCGUCACUCAGCAGGGCAUCUUUGAGAGAAAUGCC [U14A C19A C133U], the self-cleavage came to 1.6.
As for UACGUAGGUGGUUAUCCCCUGAUAGUGCAAAGGGGGCCUGGAAGUUUGGACUGGGCAGAGCUCAACACAGCGUGGCAAAGUGGCUGUGGCUAGACUGCCUCUCUGGAUUCCUCGUCACUCAGCAGGGCAUCUCCGAGAGAAAUGCC [U14A U29A U134C], the self-cleavage was determined as 0.75.
With UACGUAGGUGGUUAUCCCCUGAUAGUGCCAAGGGGGCCUGGAAGUUUGGACUGGGCAGAGCUCAACACAGCGUGGCAAAGUGGCUGUGGCUAGACUGCCUCUCUGGGUUCCUCGUCACUCAGCAGGGCAUCUCUGUGAGAAAUGCC [U14A U29C A107G A136U] the figure was 1.24; with UACGUAGGUGGUUAUCCACUGAUAGUGCUAAGGGGGCCUGGAAGUUUGGACUGGGCAGAGCUCAACACAGCGUGGCAAAGUGGCUGUGGCUAGACUGCCUCUCUGGAUUCCUCGUCACUCAGCAGGGCAUCUCUGAGAGAGAUGCC [U14A C18A A141G], 0.74.
Consider UACGUAGGUGGUUAUCCCCUGAUAGUGCUAUGGGGGCCUGGAAGUUUGGACUGGGCAGAGCUCAACACAGCGUGGCCAAGUGGCUGUGGCUAGACUGCCUCUCUGGAUUCCUCGUCACUCAGCAGGGCAUCUCUGAGAGAAAUGCC [U14A A31U A77C], for which the self-cleavage is 1.4.
For the variant UACGUAGGUGGUUAUCCCCUGAUAGUGCUAAGGGGGCCUGGAAGUUUGGACUGGGCAGAGCUCAACACAGCGUGGCAAAGUGGCUGUGGCUAGACUGCCUCUCUGGAUUCCUCGUCACUCAGCUGGGCAUCUCUGAGGGAGAUGCC [U14A A124U A138G A141G], the self-cleavage was found to be 1.79.
Consider UACGUAGGUGGUUAUCCCCUGAUAGCGCUAAGGGGGCCUGGAAGUUUGGACUGGGCAGAGCUCAACACAGCGUGGCAAAGUGGCUGUGGCUAGACUGCCUCUCUGGAUUCCUCGUCACUCAGCAGGGCAUCACUGAGAGAAAUGCC [U14A U26C U132A], for which the self-cleavage came out at 0.98.
With UACGUAGGUGGUUAUCCCCUGAUAGUGCUAAGGGGGCCUGGAAGUUUGGACUGGGCAGAGCUCAACACAGCGUGGCAAAGUGGCUGUGGCUAGACUGCCUCUCUGGAUUCCUCGUCACUCAGCUGGGCAUCCCUGAGAGAAACGCC [U14A A124U U132C U143C], the self-cleavage came to 0.85.
Regarding UACGUAGGUGGUUAUCCCCUGAUAGUGCUAGGGGGGCCUGGAAGUUUGGACUGGGCAGAGCUCCACACAGCGUGGCAAUGUGGCUGUGGCUAGACUGCCUCUCUGGAUUCCUCGUCGCUCAGCAGGGCAUCUCUGAGAGAAAUGCC [U14A A31G A64C A79U A117G], the self-cleavage was 0.33.
The same measure for UACGUAGGUGGUUAUCCCCUGAUAGUGCUAAGGGGGCCUGGAAGUUUGGACUGGGCAGAGUUCAACACAGCGUGGCAAAGUGGCUGCGGCUAGACUGCCCCUCUGUAUCCCUCGUCACUCAGCAGGGCAUCUCUGGGAGAAAUGCC [U14A C61U U87C U100C G106U U109C A136G]: 0.
For UACGUAGGUGGUUAUCCCCUGAUAGUGCUAAGGGGGCCUGGAAGUUUGGACUGGGCAGAGCUCAACACAGCGUGGCAAGGUGGCUGUGGCUGGACUGCCUCUCUGGAUUCCUCGUCACUCAGCAGGGCAUCUCUGAGAGAAAUGCC [U14A A79G A92G], the self-cleavage came to 0.
For the variant UACGUAGGUGGUUAUCCCCUGAUAGCGCUAAGGGGGCCUGGAAGUUUGGACUGGGCAGAGCUCAACACAGCGUGGCAAAGUGGCUGUGGCUAGACUGCCUCUCUGGAUUCCUCGUCACUCAGCAGGGCAUCCCUGAGAGGAAGGCC [U14A U26C U132C A140G U143G], the self-cleavage came to 0.63.
Take UACGUAGGUGGUUAUCCCCUGAUAGUGCUAAGGGGGCCUGGAAGUUUGGACUGGGCAGAGCUCAACACAGCGUGGCAAAGUGGCUGUGGCUAGACUGCCUCUCUGGAUUCCUCGUCACUCAGCUGGGCACCUCUGAGAGAAACGCC [U14A A124U U130C U143C]: the self-cleavage was determined as 0.4.
As to UACGUAGGUGGUUAUCCCCUGAUAGUGCUAAGGGGGCCUGGAAGUUUGGACUGGGCAGAGCUCAGCACAGCGUGGCAAAGUGGGUGUGGCUAGACUGCCUCUCAGGAUUCCUCGACACUCAGCAGGGCAUCUCUGAGAGAAAUGCC [U14A A65G C84G U104A U115A], the self-cleavage was determined as 0.1.
As to UACGUAGGUGGUUAUCCCCUGAUAGUACUAAGGGGGCCUGGAAGUUUGGACUGGGCAGAGCUCAACACAGCGUGGCAAAGUGGCUGUGGCUAGACAGCCUCUCUGGAUUCCUCGUCACUCAGCAGGGCAUCUCUGAGAGAAAUGCC [U14A G27A U96A], the self-cleavage came to 0.15.
